From article PMC5507898
Results are given in words; binding and its absence hold for the method and conditions named. For part of these data: In cells and extracts the contact can be indirect. Some results given as binding are weak or reduced against the parent protein; the word gives no strength. For part of these data: Where a sequence is shown, tags or fusion partners need not be part of it. Each block holds one substance with its values, some of them ahead of it.

Protein sequences, listed by entry. Tags and fused reporters are not part of them. Lines headed by an entry give the natural chain unless they say otherwise; changes in a name come on top.
UniProt P46527: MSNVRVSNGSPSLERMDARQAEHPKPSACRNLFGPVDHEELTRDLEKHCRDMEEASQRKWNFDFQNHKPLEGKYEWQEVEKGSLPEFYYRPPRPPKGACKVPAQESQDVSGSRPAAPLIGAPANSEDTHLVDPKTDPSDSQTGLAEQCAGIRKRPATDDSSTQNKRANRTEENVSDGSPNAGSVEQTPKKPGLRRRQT
UniProt Q8IXJ9: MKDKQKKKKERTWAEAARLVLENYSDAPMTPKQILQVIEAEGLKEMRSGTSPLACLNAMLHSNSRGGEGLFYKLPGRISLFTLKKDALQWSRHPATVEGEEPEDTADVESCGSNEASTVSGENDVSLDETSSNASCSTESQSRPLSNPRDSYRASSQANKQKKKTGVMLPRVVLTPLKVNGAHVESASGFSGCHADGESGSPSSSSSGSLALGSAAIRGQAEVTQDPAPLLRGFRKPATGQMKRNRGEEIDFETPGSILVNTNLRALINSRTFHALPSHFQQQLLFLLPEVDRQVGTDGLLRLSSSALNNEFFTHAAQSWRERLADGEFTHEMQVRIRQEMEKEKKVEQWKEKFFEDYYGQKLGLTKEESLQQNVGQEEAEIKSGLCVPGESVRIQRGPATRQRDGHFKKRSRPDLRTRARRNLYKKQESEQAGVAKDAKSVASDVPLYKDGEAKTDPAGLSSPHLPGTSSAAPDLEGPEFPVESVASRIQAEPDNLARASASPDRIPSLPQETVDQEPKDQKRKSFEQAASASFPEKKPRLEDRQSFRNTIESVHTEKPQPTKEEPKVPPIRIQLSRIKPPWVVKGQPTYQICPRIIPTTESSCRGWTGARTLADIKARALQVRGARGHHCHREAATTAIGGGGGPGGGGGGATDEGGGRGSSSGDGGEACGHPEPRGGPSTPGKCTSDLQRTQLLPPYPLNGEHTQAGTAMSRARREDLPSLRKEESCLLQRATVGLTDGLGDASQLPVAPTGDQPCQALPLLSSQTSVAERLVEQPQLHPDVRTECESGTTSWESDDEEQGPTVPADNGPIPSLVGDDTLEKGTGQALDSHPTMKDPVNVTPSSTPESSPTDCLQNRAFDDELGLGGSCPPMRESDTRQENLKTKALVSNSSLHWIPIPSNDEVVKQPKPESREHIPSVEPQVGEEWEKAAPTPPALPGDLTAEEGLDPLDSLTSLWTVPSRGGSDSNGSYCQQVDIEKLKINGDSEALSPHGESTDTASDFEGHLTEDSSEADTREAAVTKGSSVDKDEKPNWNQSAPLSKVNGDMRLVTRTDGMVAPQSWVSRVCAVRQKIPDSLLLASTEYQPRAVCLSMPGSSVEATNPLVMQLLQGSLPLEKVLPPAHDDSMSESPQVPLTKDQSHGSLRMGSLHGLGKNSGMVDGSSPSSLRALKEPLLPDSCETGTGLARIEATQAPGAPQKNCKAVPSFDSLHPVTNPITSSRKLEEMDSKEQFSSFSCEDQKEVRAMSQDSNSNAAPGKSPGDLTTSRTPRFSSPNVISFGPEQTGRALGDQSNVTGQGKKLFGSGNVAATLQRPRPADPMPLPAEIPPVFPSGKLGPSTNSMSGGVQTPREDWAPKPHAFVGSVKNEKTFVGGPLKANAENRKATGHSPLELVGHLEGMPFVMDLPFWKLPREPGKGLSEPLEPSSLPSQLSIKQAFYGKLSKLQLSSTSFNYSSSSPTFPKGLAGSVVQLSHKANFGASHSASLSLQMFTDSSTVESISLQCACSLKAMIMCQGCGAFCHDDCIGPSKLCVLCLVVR
UniProt P31749: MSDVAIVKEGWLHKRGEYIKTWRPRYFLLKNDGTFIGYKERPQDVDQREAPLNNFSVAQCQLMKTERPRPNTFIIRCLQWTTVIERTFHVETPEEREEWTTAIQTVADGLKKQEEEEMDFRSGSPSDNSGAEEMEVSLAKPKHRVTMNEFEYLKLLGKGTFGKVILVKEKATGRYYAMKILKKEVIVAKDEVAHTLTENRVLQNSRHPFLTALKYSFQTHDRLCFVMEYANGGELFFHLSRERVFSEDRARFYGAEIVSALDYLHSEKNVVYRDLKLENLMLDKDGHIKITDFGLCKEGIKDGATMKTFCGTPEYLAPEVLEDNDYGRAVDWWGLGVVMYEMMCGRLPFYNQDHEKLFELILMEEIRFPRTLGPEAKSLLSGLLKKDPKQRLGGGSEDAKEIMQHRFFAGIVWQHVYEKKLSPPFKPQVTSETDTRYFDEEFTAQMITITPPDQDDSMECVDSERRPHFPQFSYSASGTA

Columns and labels:
[1] = biological target: p27Kip1 (HEK293 cells) (human (endogenous in HEK293)) (UniProt P46527); assay: co-IP; HEK293 lysates with or without IGF-1 treatment; IP with anti-p27 antibody, WB with anti-ASXL1 and anti-AKT antibody
[2] = biological target: ASXL1 (endogenous, H1299 cells) (human (endogenous in H1299)) (UniProt Q8IXJ9); assay: co-IP; H1299 cell lysates; IP with anti-AKT1 or anti-ASXL1 antibody, blot with the other; lysis in TEN-modified buffer (50 mM Tris-Cl pH 7.5, 150 mM NaCl, 0.1% NP-40, 5 mM EDTA), 4 °C overnight, washes with RIPA buffer; a further co-IP after IGF-1 or LY294002 (Supplementary Figure 2e, cells not stated)
[3] = biological target: Flag-AKT1 wild-type (human) (UniProt P31749); assay: co-IP; H1299 cells transfected with Flag-AKT1, CA or KD mutant vectors; lysates for IP and WB
[4] = biological target: Flag-AKT1 kinase-deficient mutant (T308A/S473A) (human) (UniProt P31749); assay: as above
[5] = biological target: Flag-AKT1 constitutive active mutant (T308D/S473D) (human) (UniProt P31749); assay: as above
[6] = biological target: AKT1 (endogenous, H1299 cells) (human (endogenous in H1299)) (UniProt P31749); assay: co-IP; H1299 cell lysates; IP with anti-AKT1 or anti-ASXL1 antibody, blot with the other; lysis in TEN-modified buffer (50 mM Tris-Cl pH 7.5, 150 mM NaCl, 0.1% NP-40, 5 mM EDTA), 4 °C overnight, washes with RIPA buffer; a further co-IP after IGF-1 or LY294002 (Supplementary Figure 2e, cells not stated)
[7] = biological target: AKT1 (endogenous, H1299 cells) (human (endogenous in H1299)) (UniProt P31749); assay: co-IP; IP from cytoplasmic and nuclear fractions of H1299 cells
[8] = biological target: T1, GST-ASXL1 fragment (aa 371-655) (mouse) (UniProt P59598); assay: pull-down; GST or GST-ASXL1 fragment on glutathione-Sepharose mixed with His-tagged AKT1 (and fragments); bound protein detected by WB with anti-His antibody; both purified
T1 sequence: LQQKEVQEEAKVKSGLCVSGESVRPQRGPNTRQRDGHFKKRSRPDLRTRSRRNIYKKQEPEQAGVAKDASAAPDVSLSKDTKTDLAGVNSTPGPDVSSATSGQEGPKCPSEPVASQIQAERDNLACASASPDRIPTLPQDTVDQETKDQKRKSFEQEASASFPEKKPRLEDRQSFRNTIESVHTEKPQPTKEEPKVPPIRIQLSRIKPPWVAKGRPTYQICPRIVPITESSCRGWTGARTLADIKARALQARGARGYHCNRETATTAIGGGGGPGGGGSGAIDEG

Substance: AKT1 (HEK293 cells) (from UniProt P31749 1-480) (enzyme)
binding [1]: binds

Substance: His-AKT1 (from UniProt P31749 1-480) (enzyme)
binding [8]: binds

Substance: ASXL1 (endogenous, HEK293 cells) (from UniProt Q8IXJ9 1-1541)
binding [1]: binds

The remaining lines, values ahead:

binding [2]: binds
Substance: AKT1 (endogenous, H1299 cells) (from UniProt P31749 1-480) (enzyme)

binding [3]: binds
binding [4]: no binding
binding [5]: binds
binding [6]: binds
binding [7]: binds
Substance: ASXL1 (endogenous, H1299 cells) (from UniProt Q8IXJ9 1-1541)
